From PubChem BioAssay AID1963576 (National Center for Advancing Translational Sciences (NCATS), 2024)
Out of some 46,000 compounds screened, about 60 (0.1%) were called active. Not shown: some 3% with an inconclusive outcome. The call rests on the fitted dose curve; in most records, active means well fitted inhibition curve with a large enough effect; inconclusive means small, poorly fitted or top-dose-only effect; inactive means no such curve, though single readings can be large or run the other way. This is one part of the list.

assay: Primary qHTS assay for Inhibitors of ovarian cancer metastasis using an organotypic tumor microenvironment (TME) model.; further: nearly all actives have a fitted effect of over 65% in size; settings: SKOV3ip1-GFP adhesion/invasion on 3D omental model, fluorescence; series mostly up to 45.8 µM; activity change, negative = inhibition: at the top concentration
Source text: PI: Ernst Lengyel MD., Ph.D. Department of Obstetrics and Gynecology, Section of Gynecologic Oncology University of Chicago Medicine, Chicago, Illinois. The tumor microenvironment (TME) is a key determinant of metastatic efficiency. We performed a quantitative high-throughput screen (qHTS) of diverse medicinal chemistry tractable scaffolds (44,420 compounds) and pharmacologically active small molecules (386 compounds) using a layered organotypic, robust assay representing the ovarian cancer metastatic TME. This 3D model contains primary human mesothelial cells, fibroblasts, and extracellular matrix, to which fluorescently labeled ovarian cancer cells are added. Initially, 100 compounds inhibiting ovarian cancer adhesion/invasion to the 3D model in a dose-dependent manner were identified. Of those, eight compounds were confirmed active in five high-grade serous ovarian cancer cell lines and were further validated in secondary in vitro and in vivo biological assays. […] Specifically, NCGC00117362 and PP-121 inhibited ovarian cancer adhesion, invasion, and proliferation, whereas milciclib inhibited ovarian cancer invasion and proliferation. […] To evaluate the clinical potential of NCGC00117362, structure - activity relationship studies were performed. […] The three compounds identified have promise as therapeutics for prevention and treatment of ovarian cancer metastasis.
PROTOCOL TABLE (as described by Inglese J, Shamu CE and Guy RK. 2007) SEQUENCE No. (e.g., 1, 2, 3, etc.); […] (e.g., Cells, Incubation, Reagent, etc.); VALUE; DESCRIPTION. 1; Cells; 4 uL; primary human omental fibroblast, black, clear bottom, low base, 1536-well Aurora assay plate. 2; Incubation; 48 hr; 37C. 3; Cells; 3 uL; 1,200 SKOV3ip1-GFP cells. 4; Compounds; 23nL; acoustic dispenser. 5; Incubation; 2 hr; room temperature. 6; Incubation; 16 hr; 37C. 7; Wash; 5 uL; 1x PBS. 8; Fixing; 5 uL; 4% paraformaldehyde (PFA). 9; Incubation; 15 min; room temperature 10; Wash, 5 uL; 1x PBS. 11; Detection; Fluorescence, excitation filter 488 nm, emission filter 509 nm. NOTES (numbers refer to Sequence numbers above) 1. For the 1,536-well format, 40 primary human omental fibroblasts and 400 mesothelial cells were seeded with 0.02 µg fibronectin and 0.02 µg collagen type I in 4 µL of growth media (2.3 mm2; Supplementary Fig. S1A). 2. Assay plates were incubated for 48 hours at 37 C. 3. After incubation, 1,200 SKOV3ip1-GFP were seeded in 3 µL of serum-free media (growth media minus FBS) on top of primary human omental cells. 4. Compounds or controls were added to each well immediately after the addition of the cancer cells. Compounds were screened in four doses (0.36-46 µmol/L), and the plates contained the positive control (Tomatine) in eight doses (0.035-75 µmol/L) and DMSO (equal volume controls) 5 - 6. The plates were incubated at room temperature for 2 hours and then at 37 degrees C for 16 hours. 7 - 10. Following incubation, the media were aspirated and each well washed with PBS (5 µL) and then fixed with 4% paraformaldehyde (PFA; 5 µL). After 15 minutes, the PFA solution was aspirated, PBS (5 µL) was added. 11. The number of GFP-labeled cells analyzed using a fluorescent cytometer TTP LabTech Acumen eX3 using 488 nm excitation filter and 509 nm emission filter. Data was normalized to the DMSO treated for negative and Tomatine treated wells for positive control. REFERENCES: Inglese J, Shamu CE and Guy RK, Reporting data from high throughput screening of small molecule libraries, Nature Chemical Biology, 2007, 3(8): 438-441. doi.org/10.1038/nchembio0807-438. Yasgar A, Shinn P, Jadhav A, Auld DS, Michael S, Zheng W, Austin CP, Inglese J and Simeonov A, Compound Management for Quantitative High-Throughput Screening. J. Assoc. Lab. Auto., 2008, 13: 79-89. doi: 10.1016/j.jala.2007.12.004.

Activity change, negative = inhibition, inactive:
COc1cc2nc(SCc3ccc(F)cc3)n3nc(CCn4c(C)nc5ccccc54)nc3c2cc1OC 8.3%
CCc1ccc(-c2ccc3nnc(SCC(=O)Nc4cccc(C(C)=O)c4)n3n2)cc1 6.64%
N#Cc1c(-c2ccccc2)cc(-c2ccccc2)nc1SCC(=O)Nc1ccc(Cl)cc1 -9.01%
Cc1ccccc1-c1nn2c(=O)cc(CN3CCN(C(=O)c4ccccc4Br)CC3)nc2s1 2.87%
CCc1ccccc1NC(=O)C(CCSC)NS(=O)(=O)c1ccc2c(c1)oc(=O)n2C (stereo unspecified) -2.24%
CCOC(=O)N1CCN(C(=O)c2cnn(-c3cccc(F)c3)c2-n2cccc2)CC1 5.36%
Cc1cccc(Oc2nc3c(c(=O)n(C)c(=O)n3C)n2C)c1C 21.7%
COc1ccc(NC(=O)c2c(C)oc3ccc(O)c(CN4CCCC(C)C4)c23)cc1 (stereo unspecified) 2.82%
COc1cccc(CNC(=O)c2ccc(CS(=O)c3ccccc3)o2)c1 (stereo unspecified) -4.72%
COc1ccc(CCNC(=O)Cn2c(-c3cccs3)cc3cc(F)ccc32)cc1OC 4.62%
COc1ccccc1OCC(=O)Nc1cc(-c2ccc(C)cc2)no1 9.03%
COc1cccc([C@H]2Nc3ccc(S(=O)(=O)Nc4cc(C)ccc4C)cc3[C@H]3C=CC[C@H]32)c1 -9.26%
CC1CCN(S(=O)(=O)c2ccc3nc(N4CCN(c5ccccc5)CC4)ccc3c2)CC1 2.91%
Cn1c(=O)c(-c2c(Cl)cccc2Cl)cc2cnc(Nc3cccc(C(=O)O)c3)nc21 5.12%
Cc1cc(C)c(OCC(=O)Nc2cccc(-c3nc4ncccc4o3)c2)c(Br)c1 11.4%
CC(=O)c1cc(-c2ccc(F)cc2)n(CC(=O)NCc2ccc(C)cc2)c1C 5.08%
CCOC(=O)c1cccc(NC(=O)NCc2ccc3c(c2)CCN3C(=O)CC)c1 7.34%
CCCn1c2ccccc2c2cnn(CC(=O)NCCc3cc(OC)ccc3OC)c(=O)c21 7.75%
Cc1nc(-c2ccc(F)cc2)sc1CCNC(=O)C(=O)Nc1ccc2c(c1)OCO2 4.61%
COc1cccc(-c2nc(CS(=O)(=O)CC(=O)NCCCc3ccccc3)c(C)o2)c1 8.16%
Cc1ccc(S(=O)(=O)N2CCCc3cc(NC(=O)c4ccc(C(C)(C)C)cc4)ccc32)cc1 0.393%
Cc1ccc(CSc2ncccc2C(=O)O)cc1 -1.11%
CCC(=O)Nc1ccccc1-c1nc2ccccc2n(CC(=O)c2ccc(Br)cc2)c1=O -3.74%
CCc1ccc(C(=O)c2cn(CC(=O)Nc3ccc(OC)c(Cl)c3)c3nc(C)ccc3c2=O)cc1 3.3%
CCCN(C(=O)NCc1noc2ccc(C)cc12)c1ccc(Cl)c(Cl)c1 -11.3%
COc1ccc(N2CCN(C(=O)c3nn(C)c4c3CSc3ccccc3-4)CC2)cc1 -3.15%
CCCc1cc(=O)[nH]c(SCc2nc(-c3ccc(OC)cc3)no2)n1 2.24%
Cc1cn([C@H]2C[C@H](N=[N+]=[N-])[C@@H](CO)O2)c(=O)[nH]c1=O -4.12%
O=C(Cn1c(SCCOc2ccccc2Cl)nc2ccccc21)N1CCCCC1 10.2%
CCOC(=O)c1ccccc1NC(=O)c1sc2ncn(CC)c(=O)c2c1C 5.02%
Cc1ccc(S(=O)(=O)Nc2cc3c(C(=O)OCc4ccccc4)c(C)oc3c3ccccc23)cc1 3.76%
Cc1ccc(C)c(NC(=O)Cn2c(=O)n(Cc3ccco3)c(=O)c3ccc(C(=O)NC4CCCC4)cc32)c1 -1.79%
COc1ccc(CC(=O)NCCc2csc(-c3cccc(F)c3)n2)cc1OC 0.643%
COc1cccc(CNC(=O)c2nnc(Cc3ccc(Cl)cc3)o2)c1 4.87%
O=C(Nc1ccc2oc(-c3cc(Br)ccc3Cl)nc2c1)c1ccc2ccccc2c1 -26.2%
CCOCCc1nn2c(=O)cc(COC(=O)c3ccco3)nc2s1 -8.61%
O=C(NCc1ccc(Cl)cc1)C1CCN(S(=O)(=O)c2ccc3c(c2)CCCN3C(=O)C2CCC2)CC1 -2.16%
CCOc1ccc(NC(=O)c2noc3c2CSc2ccccc2-3)cc1 6.23%
O=C(CSc1nc(O)c(C/C=C/c2ccccc2)c(=O)[nH]1)Nc1cccc(F)c1 -13.1%
CC(C)(C)c1ccc(S(=O)(=O)N2CCN(C(=O)c3cc(-c4ccc(Br)cc4)n[nH]3)CC2)cc1 -7.77%
CCOC(=O)Cn1c(=O)n(C2CCCCC2)c2nc(-c3cccc(C)c3)nc(C(N)=O)c21 -7.36%
COc1ccc(-n2c(SCC(=O)NCc3ccccc3)nc3n[nH]c(C)c3c2=N)cc1 -17%
CN(C(=O)c1oc(=O)c2ccccc2c1-c1ccccc1)c1cccc(Cl)c1 9.03%
CCCn1c(=O)c2sccc2n2c(CCCC(=O)Nc3ccccc3F)nnc12 9.44%
COc1ccccc1N1CCN(c2ncnc3onc(C)c23)CC1 0.736%
COc1ccc(-c2cc(C)no2)cc1S(=O)(=O)N1CC(C)Oc2ccccc21 (stereo unspecified) -1.73%
CCOc1ccc(CCNC(=O)Cc2ccc(NC(=O)N3CCSc4ncccc43)cc2)cc1 -6.13%
COc1ccc(-n2nc(C(=O)N3CCN(c4cccc(C(F)(F)F)c4)CC3)c3c4ccccc4n(C)c3c2=O)cc1Cl -2.94%
COc1cccc(CN2CCc3nc(N4CCN(C)CC4)ncc3C2)c1 -9.43%
COc1cc(OC)cc(C(=O)Nc2nc(-c3nnn(-c4ccc(F)c(Cl)c4)c3C)ns2)c1 -2.13%
Cc1oc2ncn(C)c(=O)c2c1C(=O)NCc1ccccc1 0.816%
CNCc1ccc(-c2[nH]c3cc(F)cc4c3c2CCNC4=O)cc1 -5.69%
COc1cccc(N2CCN(C(=O)Cn3ncc4c5ccccc5n(C)c4c3=O)CC2)c1 1.34%
COc1cccc(C(=O)Nc2ccccc2-c2nnc(-c3ccc(C(C)(C)C)cc3)o2)c1 -0.358%
COc1ccc(NC(=O)CSc2nc(C)cc(C)c2C(=O)Nc2cccc(C)c2)cc1 0.844%
COc1ccc2cc3cc(C(=O)Nc4ccccc4C)oc3nc2c1 12.8%
O=C(CSc1nc(-c2ccco2)nc2cc(=O)[nH]n12)Nc1ccccc1F -5.59%
O=C(c1ccccc1Cl)N1CCN(CCc2ccccn2)CC1 -2.77%
Cc1ccc(-c2ncn(-c3ccc(Nc4nccc(-c5cccc(N6CCOCC6)c5)n4)cc3)n2)cn1 -15.7%
Cc1ccccc1NC(=O)c1ccc(F)c(S(=O)(=O)NC2CCCC2)c1 13.4%
CCN1CCN(C(=O)c2ccc3c(c2)N(Cc2ccccc2F)C(=O)c2ccccc2S3(=O)=O)CC1 -12.4%
CCNC(=O)c1noc(-c2cc(C(C)C)c(O)cc2O)c1-c1ccc(CN2CCOCC2)cc1 34.6%
CCOc1ccc(-c2cc(CCCC(=O)NCCc3ccc(OCC)c(OCC)c3)no2)cc1 -9.54%
CCCOC(=O)c1ccc(Nc2nc3ccccc3nc2-n2nc(C)cc2C)cc1 -8.01%
CCOC(=O)c1cccc(NC(=O)N2CC(CC)Oc3ccccc32)c1 (stereo unspecified) -3.09%
COc1ccc(NC(=O)c2sc3nc4c(cc3c2N)CCCCCC4)cc1Cl -21.8%
COc1cc(NS(=O)(=O)c2ccc(NC(=O)c3ccc(C(C)=O)cc3)cc2)nc(OC)n1 -9.74%
COc1cccc(N(C)C(=S)Oc2ccc3c(c2)CCCC3)n1 -6.31%
CCn1c(=O)c2cc(C(=O)N(C)c3cc(Cl)c(OC)cc3OC)sc2c2ccccc21 6.98%
CCc1nn(CC(=O)NCCN(CC)CC)c(=O)c2cc3occc3n12 -4.92%
Cc1nc2cccnc2n1C1CCN(S(=O)(=O)c2ccc(C(C)C)cc2)CC1 -1.97%
Cc1cccc(-n2ncc(C(=O)NCc3ccco3)c2C2CCN(C(=O)OC(C)(C)C)CC2)c1 -9.75%
N#C/C(=C\c1ccc(Br)cc1)c1nc(-c2cc3cc(Br)ccc3oc2=O)cs1 2.82%

outcome, inactive:
CCCNC(=O)Cn1c(=O)cc(C)c2c(C)nn(-c3cccc(F)c3)c21
COc1ccc(NC(=O)c2oc3ccccc3c2NC(=O)c2cc(OC)c(OC)c(OC)c2)cc1
COc1ccc(CCNC(=O)CN2C(=O)COc3ccccc32)cc1OC
COc1ccc(C2=C(N3CCN(c4cc(Cl)ccc4C)CC3)c3ccccc3C2=O)cc1
Fc1cccc(CSc2nc(NCCc3ccccc3)c3ccccc3n2)c1
Oc1c(C(c2ccc(Cl)cc2)N2CCOCC2)sc2nc(-c3ccco3)nn12 (stereo unspecified)
COc1cc(NS(=O)(=O)c2cccs2)cc(OC)c1
CCN(CC)c1ccc(NC(=O)c2sc3nc(-c4ccccc4)cn3c2C)cc1
Cc1ccc(Cl)cc1NC(=O)Cn1cc(S(=O)(=O)Cc2ccccc2Cl)c2ccccc21
CC1=C(C(=O)Nc2cccc(C(F)(F)F)c2)C(c2ccccn2)n2ncnc2N1 (stereo unspecified)
Cc1cc(C)cc(OCC(=O)NCC2(N3CCOCC3)CCCCC2)c1
O=C(C1CCN(c2ncnc3c2nc2n3CCCCC2)CC1)N1CCN(c2ccccc2)CC1
N#Cc1ccccc1Cn1c(=O)n(-c2ccc(F)c(Cl)c2)c(=O)c2sccc21
COc1cc(-c2noc(-c3ccc(N4CCCCC4)c([N+](=O)[O-])c3)n2)cc(OC)c1OC
O=C1CC(c2cccc(F)c2)c2c(n3ncnc3[nH]c2=O)N1 (stereo unspecified)
COc1cccc(N2CCN(C(=O)Cn3ncc4c(=O)oc5ccccc5c43)CC2)c1
CCN1CCN(CCCNC(=O)c2ccc3c(c2)sc2nc(-c4ccc(C)cc4)cn23)CC1
O=C(CSc1ccc(-c2cccs2)nn1)Nc1cccc(F)c1
Cc1cccc(-c2noc(-c3cc(-c4ccc(F)cc4)n[nH]3)n2)c1
C[C@@H](NC(=O)CN(c1ccccc1)S(=O)(=O)N(C)C)c1ccccc1
Cc1ccc(N2CCN(C(=O)c3c(C)oc4nc(C)nc(N5CCCC5)c34)CC2)c(C)c1
Cc1cccc(CNC(=O)CCCN2C(=O)COc3ccc(C)cc32)c1
O=C(CSc1ncc2c(n1)-c1ccccc1N(Cc1ccc(F)cc1)S2(=O)=O)NCc1ccccc1
